# Laboratory results: PubChem BioAssay (Tox21)
# The shares of active, inactive and inconclusive entries below differ from those in the screen. For part of these data: Potencies of inconclusive entries are left out as doubtful fits. A structure can be active in one record and inactive in another. Active and inactive are the calls of the source. Unless noted, calls come from the whole dose curve; as a rule, active = well fitted curve in the direction sought with a large enough effect in the repeat runs; inconclusive = weak or mixed curves; inactive = no such curve, though single readings can be large; an effect the other way counts as inactive or inconclusive.
# How the values were obtained:
# [1] = A CellTox Green Cytotoxicity Assay to monitor cytotoxicity in HepG2 cells - 40 hour (AID 1224879); note: potency is the fitted concentration of half-maximal effect; nearly all actives have a fitted effect of over 40% in size
# Outline: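 Nonlytic assay: viable cells exclude the dye, so fluorescence scales with cell death. HepG2 at 600 cells/well, compounds added after 5 h, signal read across 40 h.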
# [2] = qHTS assay to identify small molecule agonists of the sonic hedgehog signaling (Shh) pathway - cell viability counter screen (AID 1259366); note: % is set by controls: 0 for no effect and ±100 for the full control effect; nearly all actives have a fitted effect of over 50% in size
# Outline: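 Fluorescence from CellTiter-Fluor reports live cells in this counter screen. NIH/3T3-derived Gli1-Luc reporter cells receive test compounds for 24hr at 37C; reagent goes in at 23hr.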
# [3] = biological target: Cytochrome P450 3A4 (Homo sapiens) (UniProt P08684); test: Cytochrome P450 Family 3 Subfamily A Member 4 (CYP3A4) small molecule antagonists: luciferase reporter qHTS assay (AID 1671201); note: nearly all actives have a fitted effect of over 50% in size; note: potency is the fitted concentration of half-maximal effect
# Chain of UniProt P08684 (P08684 whole entry, looked up): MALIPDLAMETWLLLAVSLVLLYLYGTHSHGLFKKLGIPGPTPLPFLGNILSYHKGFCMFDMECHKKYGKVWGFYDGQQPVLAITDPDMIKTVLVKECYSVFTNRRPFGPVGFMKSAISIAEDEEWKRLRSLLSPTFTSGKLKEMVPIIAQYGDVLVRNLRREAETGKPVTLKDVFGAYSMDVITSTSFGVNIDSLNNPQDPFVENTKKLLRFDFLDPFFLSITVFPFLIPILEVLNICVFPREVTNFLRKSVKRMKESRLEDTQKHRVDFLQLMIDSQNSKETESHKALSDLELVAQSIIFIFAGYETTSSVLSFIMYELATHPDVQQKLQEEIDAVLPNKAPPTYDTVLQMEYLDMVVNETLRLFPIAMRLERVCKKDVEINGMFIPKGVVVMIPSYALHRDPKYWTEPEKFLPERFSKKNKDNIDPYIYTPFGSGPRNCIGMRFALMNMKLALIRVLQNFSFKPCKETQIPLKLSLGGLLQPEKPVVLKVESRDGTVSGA
# Outline: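 Room-temperature assay throughout: 10 min compound–enzyme/substrate preincubation, 1 h reaction after NADPH regeneration solution, 20 min detection. Luciferin formed from proluciferin substrate is quantified by luminescence.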
# [4] = qHTS assay to identify small molecule antagonists of the androgen receptor (AR) signaling pathway using the MDA cell line - cell viability counter screen (AID 743041; note: nearly all actives have a fitted effect of over 45% in size; note: potency is the fitted concentration of half-maximal effect; for viability change, negative = cytotoxic: % is set by controls: 0 for no effect and ±100 for the full control effect); conditions: MDA-kb2 viability, CellTiter-Fluor, 16 h, cells co-treated with R1881 androgen agonist; viability change, negative = cytotoxic: at 70.3 µM (top of the series)
# Outline: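 MDA-kb2 AR-luc human breast carcinoma cells (MMTV-luciferase, AR/GR responsive) were treated with compounds plus R1881 agonist for 16 h at 37 °C. Viability was read as CellTiter-Fluor fluorescence in the same wells as the reporter assay.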
# [5] = biological target: Estrogen receptor (Homo sapiens) (UniProt P03372); test: qHTS assay to identify small molecule antagonists of the estrogen receptor alpha (ER-alpha) signaling pathway (AID 743069; active = well fitted curve in the direction sought with a large enough effect in the signal ratio in the repeat runs, not every such curve was filed as active; inconclusive = weak or mixed curves, or effect the other way; inactive = no such curve, though single readings can be large or run the other way; the % refers to the signal ratio; note: potency is the fitted concentration of half-maximal effect); conditions: HEK293 ER-alpha-UAS-bla, beta-lactamase ratio, antagonist mode; activity, negative = inhibition: at 69.4 µM (top of the series) unless noted
# Chain of UniProt P03372 (P03372 whole entry, looked up): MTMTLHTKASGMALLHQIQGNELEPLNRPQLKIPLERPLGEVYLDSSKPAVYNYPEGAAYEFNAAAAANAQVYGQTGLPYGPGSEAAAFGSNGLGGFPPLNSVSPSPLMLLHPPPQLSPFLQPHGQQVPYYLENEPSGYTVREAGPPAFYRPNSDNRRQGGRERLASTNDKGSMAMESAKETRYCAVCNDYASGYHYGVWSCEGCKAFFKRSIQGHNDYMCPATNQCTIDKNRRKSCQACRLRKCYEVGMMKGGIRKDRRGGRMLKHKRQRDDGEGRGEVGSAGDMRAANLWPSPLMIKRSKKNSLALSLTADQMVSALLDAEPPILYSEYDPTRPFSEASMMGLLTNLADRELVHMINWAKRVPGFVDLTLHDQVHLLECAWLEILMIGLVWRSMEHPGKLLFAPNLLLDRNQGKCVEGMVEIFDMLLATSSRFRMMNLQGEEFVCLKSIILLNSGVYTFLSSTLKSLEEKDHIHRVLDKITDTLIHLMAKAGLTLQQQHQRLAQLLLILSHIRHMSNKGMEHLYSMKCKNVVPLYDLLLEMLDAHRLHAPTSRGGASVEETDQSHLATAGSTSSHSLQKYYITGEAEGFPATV
# Outline: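 HEK293 cells stably carrying an ER-alpha-UAS-bla beta-lactamase reporter were pre-cultured overnight in 2% charcoal-stripped FBS medium. Test compounds in DMSO were added together with 17beta-estradiol for 18 hr at 37C. Read-out was fluorescence after 2 hr with LiveBLAzer B/G FRET substrate at room temperature.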
# [6] = qHTS assay to identify small molecule antagonists of the peroxisome proliferator-activated receptor gamma (PPARg) signaling pathway - cell viability counter screen (AID 743194); conditions: PPARg-bla HEK293H viability, CellTiter-Glo luminescence, 17 h, co-treated with 50 nM rosiglitazone; activity change, negative = cytotoxicity: at 62.6 µM (top of the series) unless noted; note: nearly all actives have a fitted effect of over 55% in size; note: potency is the fitted concentration of half-maximal effect
# Outline: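 PPARg-UAS-bla HEK293H cells were plated, rested 5 h at 37 C, then treated with compounds plus rosiglitazone (50 nM final) for 17 h at 37 C; viability was then read by CellTiter-Glo luminescence after 30 min at room temperature.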
# [7] = qHTS RealTime-Glo MT Cell Viability Assay in HEK293 cells - 40 hour (AID 1224874); conditions: RealTime-Glo luminescence; max response: hits give low values; note: nearly all actives have a fitted effect of over 50% in size; note: potency is the fitted concentration of half-maximal effect
# Outline: (§1)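 Tox21 screen in HEK293 using RealTime-Glo MT chemistry, with cells and reagent co-dispensed. Luminescence proportional to viable cell number was captured at intervals during 40 h compound exposure at 37 C.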
# [8] = qHTS assay to identify small molecule agonists of the vitamin D receptor (VDR) signaling pathway - cell viability counter screen (AID 743224); note: nearly all actives have a fitted effect of over 50% in size; note: potency is the fitted concentration of half-maximal effect; for activity change, negative = cytotoxicity: % is set by controls: 0 for no effect and ±100 for the full control effect
# Outline: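 Here cell health was gauged by luminescent ATP detection (CellTiter-Glo, 30 min RT) in VDR-bla cells that had been incubated with test compounds for 16 h at 37C and 5% CO2.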
# [9] = qHTS assay to identify small molecule antagonists of the estrogen receptor alpha (ER-alpha) signaling pathway using the BG1 cell line (AID 743080; calls by dose curve;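 note: BG1 cells stimulated with 17beta-estradiol alongside compound; nearly all actives have a fitted effect of over 25% in size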; note: potency is the fitted concentration of half-maximal effect); conditions: BG1Luc4E2 ERE-luciferase antagonist mode, luminescence; activity change, negative = inhibition: at 70.3 µM (top of the series) unless noted
# Outline: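 BG1-Luc-4E2 cells (endogenous full-length ER-alpha, 4xERE luciferase) hormone-starved 5 days in charcoal-stripped FBS, plated 4,000/well for 24 h, then compound plus 17beta-estradiol for 21.5 h at 37 C; ONE-Glo luminescence read.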
# [10] = qHTS RealTime-Glo MT Cell Viability Assay in HEK293 cells - 16 hour (AID 1224872); note: nearly all actives have a fitted effect of over 50% in size; note: potency is the fitted concentration of half-maximal effect
# Outline: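 HEK293 cells seeded with NanoLuc/prosubstrate reagent, rested 5 h at 37 C, then dosed and kept at 37 C up to 40 h. Nonlytic real-time luminescence from viable cells read at 0, 8, 16, 24, 32 and 40 h.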
# [11] = Human pregnane X receptor (PXR) small molecule agonists, qHTS cell viability counter screen (AID 1346977)
# Outline: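 After a 5hr pre-incubation, PXR-Luc HepG2 cells received compounds plus positive control in DMSO and were kept 24hr at 37C. Cell viability was quantified by fluorescence from CellTiter-Fluor added for the final hour.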
# [12] = biological target: Voltage-gated inwardly rectifying potassium channel KCNH2 (Homo sapiens) (UniProt Q12809); test: Human Ether-a-go-go-Related Gene (hERG) channel small molecule antagonists: fluorescence cell-based qHTS assay (AID 1671200); note: nearly all actives have a fitted effect of over 50% in size; note: potency is the fitted concentration of half-maximal effect
# Chain of UniProt Q12809 (Q12809 whole entry, looked up): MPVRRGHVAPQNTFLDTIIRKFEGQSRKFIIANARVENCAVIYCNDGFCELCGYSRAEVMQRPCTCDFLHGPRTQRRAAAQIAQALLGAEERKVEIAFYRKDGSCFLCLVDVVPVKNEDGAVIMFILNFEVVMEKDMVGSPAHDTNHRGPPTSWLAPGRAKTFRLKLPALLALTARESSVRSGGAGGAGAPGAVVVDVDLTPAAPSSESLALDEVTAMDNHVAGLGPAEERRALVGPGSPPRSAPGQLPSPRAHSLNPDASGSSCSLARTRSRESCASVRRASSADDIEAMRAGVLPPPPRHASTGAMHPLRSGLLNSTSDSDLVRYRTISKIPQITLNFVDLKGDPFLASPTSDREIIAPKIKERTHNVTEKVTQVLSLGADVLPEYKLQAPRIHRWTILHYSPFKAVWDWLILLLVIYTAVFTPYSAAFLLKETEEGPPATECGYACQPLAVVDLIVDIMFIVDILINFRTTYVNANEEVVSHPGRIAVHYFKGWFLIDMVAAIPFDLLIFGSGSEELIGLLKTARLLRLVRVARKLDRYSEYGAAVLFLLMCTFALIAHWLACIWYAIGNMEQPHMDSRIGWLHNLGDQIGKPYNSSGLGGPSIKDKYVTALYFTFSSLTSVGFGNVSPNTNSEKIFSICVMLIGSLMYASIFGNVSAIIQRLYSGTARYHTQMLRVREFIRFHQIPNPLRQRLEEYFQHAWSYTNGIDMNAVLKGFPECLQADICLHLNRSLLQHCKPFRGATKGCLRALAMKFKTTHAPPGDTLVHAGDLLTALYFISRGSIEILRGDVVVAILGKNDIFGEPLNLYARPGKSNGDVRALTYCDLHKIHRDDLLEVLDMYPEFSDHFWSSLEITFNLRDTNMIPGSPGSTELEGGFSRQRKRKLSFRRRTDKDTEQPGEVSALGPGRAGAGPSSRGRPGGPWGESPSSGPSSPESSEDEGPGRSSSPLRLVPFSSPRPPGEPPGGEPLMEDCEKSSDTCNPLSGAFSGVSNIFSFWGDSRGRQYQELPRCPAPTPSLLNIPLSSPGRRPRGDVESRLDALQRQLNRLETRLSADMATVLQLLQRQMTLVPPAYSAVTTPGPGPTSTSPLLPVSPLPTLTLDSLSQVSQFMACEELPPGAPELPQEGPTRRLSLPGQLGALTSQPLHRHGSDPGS
# Outline: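 Cell line hERG-U2OS; dye FluxOR II, 1 h RT dark; Tl+ stimulus; ex 480/em 540 nm, read each second for 2 min.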
# [13] = A CellTox Green Cytotoxicity Assay to monitor cytotoxicity in HEK293 cells - 32 hour (AID 1224881); note: nearly all actives have a fitted effect of over 40% in size; note: potency is the fitted concentration of half-maximal effect
# Outline: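 Seeding of HEK293 cells together with cytotoxicity dye preceded a 5 h incubation at 37 C/5% CO2. Test compounds in DMSO were then added and fluorescence monitored across 40 h.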
# [14] = biological target: Androgen receptor (Homo sapiens) (UniProt P10275); test: qHTS assay to identify small molecule antagonists of the androgen receptor (AR) signaling pathway (AID 743035; active = well fitted inhibition curve with a large enough effect in the signal ratio in the repeat runs, not every such curve was filed as active; inconclusive = weak or mixed curves, or effect the other way; inactive = no such curve, though single readings can be large or run the other way; the % refers to the signal ratio; note: potency is the fitted concentration of half-maximal effect); conditions: HEK293 AR-UAS-bla, R1881-stimulated, beta-lactamase FRET, 16 h; activity change, negative = inhibition: at 58.5 µM (top of the series) unless noted
# Chain of UniProt P10275 (P10275 whole entry, looked up): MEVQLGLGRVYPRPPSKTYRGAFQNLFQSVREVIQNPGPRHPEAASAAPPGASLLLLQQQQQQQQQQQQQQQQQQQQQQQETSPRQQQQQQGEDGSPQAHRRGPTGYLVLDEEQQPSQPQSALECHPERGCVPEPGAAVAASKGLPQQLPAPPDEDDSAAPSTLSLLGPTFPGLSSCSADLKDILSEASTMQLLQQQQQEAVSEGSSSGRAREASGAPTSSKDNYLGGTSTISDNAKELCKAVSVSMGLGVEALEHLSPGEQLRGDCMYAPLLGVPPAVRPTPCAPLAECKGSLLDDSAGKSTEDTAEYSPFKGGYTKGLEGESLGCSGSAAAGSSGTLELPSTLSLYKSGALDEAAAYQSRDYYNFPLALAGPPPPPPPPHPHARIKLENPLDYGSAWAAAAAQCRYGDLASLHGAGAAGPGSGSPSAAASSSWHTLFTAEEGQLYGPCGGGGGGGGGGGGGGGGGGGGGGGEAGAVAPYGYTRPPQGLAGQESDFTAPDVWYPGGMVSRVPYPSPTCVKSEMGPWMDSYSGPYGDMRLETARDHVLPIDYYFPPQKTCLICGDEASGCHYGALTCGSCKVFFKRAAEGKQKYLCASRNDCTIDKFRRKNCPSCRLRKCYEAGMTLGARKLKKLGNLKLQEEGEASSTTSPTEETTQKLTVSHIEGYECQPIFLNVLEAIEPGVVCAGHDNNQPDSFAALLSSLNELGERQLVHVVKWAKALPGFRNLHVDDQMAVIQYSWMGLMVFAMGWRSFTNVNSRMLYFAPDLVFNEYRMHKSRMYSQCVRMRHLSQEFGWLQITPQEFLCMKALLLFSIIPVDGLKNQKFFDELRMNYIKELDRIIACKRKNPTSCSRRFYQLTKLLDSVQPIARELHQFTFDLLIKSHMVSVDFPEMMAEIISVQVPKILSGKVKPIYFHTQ
# Outline: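 Using qHTS, AR-UAS-bla GripTite HEK293 cells received compound, then R1881, and were cultured 16 h at 37C/5% CO2 before a 2 h room-temperature LiveBLAzer B/G FRET substrate step and fluorescence measurement.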
# [15] = qHTS assay to identify small molecule antagonists of the vitamin D receptor (VDR) signaling pathway - cell viability counter screen (AID 743225); conditions: VDR-bla HEK293T viability, CellTiter-Glo luminescence, 16 h; viability change, negative = cytotoxic: at 61 µM (top of the series) unless noted
# Outline: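 Luminescent cell viability (CellTiter-Glo) in VDR-bla HEK 293T cells after 16 h compound exposure at 37C in the presence of 3 nM final 1-alpha,25-dihydroxy vitamin D3.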
# [16] = biological target: Estrogen receptor beta (Homo sapiens) (UniProt Q92731); test: qHTS assay to identify small molecule antagonists of the estrogen receptor beta (ER-beta) signaling pathway (AID 1259378; active = well fitted inhibition curve with a large enough effect in the signal ratio in the repeat runs, not every such curve was filed as active; inconclusive = weak or mixed curves, or effect the other way; inactive = no such curve, though single readings can be large or run the other way; the % refers to the signal ratio; note: % is set by controls: 0 for no effect and ±100 for the full control effect); conditions: ER-beta-UAS-bla HEK293T, beta-lactamase FRET ratio, 16 h; activity, negative = inhibition: at 92.4 µM (top of the series) unless noted
# Chain of UniProt Q92731 (Q92731 whole entry, looked up): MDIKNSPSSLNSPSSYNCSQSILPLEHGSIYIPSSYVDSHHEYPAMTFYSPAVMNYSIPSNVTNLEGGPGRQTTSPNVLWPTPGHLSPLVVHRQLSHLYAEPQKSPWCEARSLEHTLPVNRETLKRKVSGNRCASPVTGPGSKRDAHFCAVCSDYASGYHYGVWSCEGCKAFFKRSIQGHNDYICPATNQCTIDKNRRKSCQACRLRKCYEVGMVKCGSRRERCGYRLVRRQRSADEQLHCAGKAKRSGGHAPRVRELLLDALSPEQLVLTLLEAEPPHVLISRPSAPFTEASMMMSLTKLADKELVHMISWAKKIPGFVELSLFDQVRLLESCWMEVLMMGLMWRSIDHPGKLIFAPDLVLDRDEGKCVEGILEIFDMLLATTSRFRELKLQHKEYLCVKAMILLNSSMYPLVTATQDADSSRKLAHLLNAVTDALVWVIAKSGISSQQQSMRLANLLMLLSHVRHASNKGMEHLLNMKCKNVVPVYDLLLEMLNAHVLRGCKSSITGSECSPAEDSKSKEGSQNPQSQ
# Outline: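 ER-beta-UAS-bla HEK293T (GripTite) cells in 2% charcoal-stripped FBS medium were preincubated 6 hr at 37C, dosed with compound, then stimulated with 1 nM E2 (final) for 16 hr; beta-lactamase reporter read by B/G FRET fluorescence after 2 hr substrate loading.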
# [17] = qHTS assay to identify small molecule agonists of the TGF-beta/Smad signaling pathway (AID 1346859; active = well fitted activation curve with a large enough effect in the signal ratio in the repeat runs, not every such curve was filed as active; inconclusive = weak or mixed curves; the % refers to the signal ratio; note: % is set by controls: 0 for no effect and ±100 for the full control effect)
# Outline: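 Beta-lactamase reporter activity downstream of Smad binding elements was measured in stably transfected HEK 293T cells; compounds were incubated for 5 hr, substrate for 2 hr at room temperature.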
# [18] = qHTS RealTime-Glo MT Cell Viability Assay in HEK293 cells - 8 hour (AID 1224887)
# Outline: as §1
# Tags give direction and shape of the fitted curve or compound fluorescence and quenching.
compound,measurement,setting,value
CCCC[C@H]1CN(CC2CCOCC2)C(=O)OC12CCN(C1(C)CCN(C(=O)c3c(C)ncnc3C)CC1)CC2,Potency,[1],"inconclusive [activator, single point]"
same,Potency,[2],inactive
same,Potency,[3],"inconclusive [inhibitor, partial curve]"
Cc1ccccc1C=O,Potency,[4],"inconclusive [rising, partial curve, poor fit]"
same,Potency,[5],"inconclusive [cytotoxic, single point]"
CCCc1nc(C)c2c(=O)[nH]c(-c3cc(S(=O)(=O)N4CCN(CC)CC4)ccc3OCC)nn12,Potency,[6],"inconclusive [rising, partial curve, poor fit]"
same,Potency,[7],"inconclusive [cytotoxic, single point]"
Nc1ccc(S(=O)(=O)Nc2ccccn2)cc1,Potency,[3],"inconclusive [inhibitor, partial curve]"
CCOc1ccccc1O,"viability change, negative = cytotoxic",[4],inconclusive: 31.3%
same,Potency,[8],inactive
CCCCN(CCCC)CCCC,Potency,[9],inactive
same,Potency,[10],inactive
same,Potency,[2],inactive
same,Potency,[11],inactive
same,Potency,[12],inactive
CC(O)CN (centres undefined),Potency,[13],inactive
CC(=O)O[C@@]12CO[C@@H]1C[C@H](O)[C@@]1(C)C(=O)[C@H](O)C3=C(C)[C@@H](OC(=O)[C@H](O)[C@@H](NC(=O)OC(C)(C)C)c4ccccc4)C[C@@](O)([C@@H](OC(=O)c4ccccc4)[C@H]21)C3(C)C,Potency,[14],"inconclusive [falling, partial curve, poor fit]"
same,Potency,[4],inactive
same,Potency,[5],"inconclusive [rising, full curve, poor fit]"
same,Potency,[9],active: 59.6 nM
same,Potency,[10],"inconclusive [cytotoxic, partial curve]"
same,Potency,[13],inactive
CC1(C)SC(C)(C)SC(C)(C)S1,Potency,[4],inactive
same,Potency,[15],"inconclusive [cytotoxic, partial curve, poor fit]"
same,Potency,[10],"inconclusive [cytotoxic, partial curve, poor fit]"
same,Potency,[7],"inconclusive [cytotoxic, partial curve]"
same,Potency,[1],"inconclusive [activator, single point]"
same,Potency,[3],inactive
NC(=O)NNC(N)=O,Potency,[6],"inconclusive [rising, full curve, poor fit]"
same,Potency,[8],"inconclusive [rising, single point]"
same,max response,[7],inactive: 19.6%
same,Potency,[11],inactive
CC1(C)COCN1,Potency,[13],"inconclusive [activator, single point]"
same,"activity, negative = inhibition",[16],inconclusive: -35.7%
N#CSCC(=O)O,Potency,[10],inactive
CCCCC(CC)(CO)CO,Potency,[10],inactive
CCOCCn1c(C2CCN(CCc3ccc(C(C)(C)C(=O)O)cc3)CC2)nc2ccccc21,max response,[7],inactive: 0.952%
same,Potency,[1],"inconclusive [activator, partial curve]"
same,Potency,[16],inactive
same,Potency,[12],"inconclusive [inhibitor, partial curve]"
same,Potency,[3],inactive
CCCCCCCC(=O)O,Potency,[6],"inconclusive [rising, partial curve, poor fit]"
CC(O)COCC(C)O (centres undefined),Potency,[5],"inconclusive [falling, single point]"
same,"activity change, negative = cytotoxicity",[6],inconclusive: 30.2%
CCOC(=O)Nc1ccc2c(c1)N(C(=O)CCN1CCOCC1)c1ccccc1S2,Potency,[17],inactive
O=C(O)c1cc(Cl)cc(Cl)c1,Potency,[2],inactive
CN1CC(=O)NC1=N,Potency,[14],inactive
same,Potency,[18],inactive
C=C(C)C(=O)OCCNC(C)(C)C,Potency,[18],inactive
same,Potency,[17],inactive
same,Potency,[3],inactive
COc1cc(C(=S)N2CCOCC2)ccc1O,Potency,[14],"inconclusive [rising, partial curve, poor fit]"
same,Potency,[5],"inconclusive [activator, partial curve]"
same,Potency,[2],inactive
